Test results as given in the supplement of paper PMC9046079.
Counter-ions that a name gives are not always drawn. ± gives the standard deviation of the averaged measurements. The list shows a part of the results.

Tests used:
[1] = tested on: murine small intestinal organoids (ENR+CD Paneth differentiation); assay: cellular ATP (CellTiter-Glo 3D) relative to plate median (log10 fold change); higher = more viable cells; details: 6 d
[2] = tested on: murine small intestinal organoids (ENR+CD Paneth differentiation); assay: carbachol-stimulated secreted lysozyme activity relative to plate median (log10 fold change); higher = more Paneth cell lysozyme secretion; details: 6 d, carbachol 10 µM
[3] = tested on: murine small intestinal organoids (ENR+CD Paneth differentiation); assay: basal (non-stimulated) secreted lysozyme activity relative to plate median (log10 fold change); higher = more Paneth cell lysozyme secretion; details: 6 d
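Wherever basal (non-stimulated) secreted lysozyme activity relative to plate median is given: ISC-enriched organoid precursors grown as 2.5D pseudo-monolayer on Matrigel, compound given on day 0 and day 3, plate values LOESS-normalized before median fold change, three murine donors.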
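Wherever cellular ATP (CellTiter-Glo 3D) relative to plate median is given: 2.5D pseudo-monolayer culture of ISC-enriched organoids partly embedded atop Matrigel, compound added on day 0 and again on day 3, per-plate LOESS correction before median fold change.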

Row | Compound | cellular ATP (log10) ([1]; 0.08 µM) | cellular ATP (log10) ([1]; 0.4 µM) | cellular ATP (log10) ([1]; 2 µM) | cellular ATP (log10) ([1]; 10 µM) | carbachol-stimulated secreted lysozyme activity (log10) ([2]; 0.08 µM) | carbachol-stimulated secreted lysozyme activity (log10) ([2]; 0.4 µM) | carbachol-stimulated secreted lysozyme activity (log10) ([2]; 2 µM) | carbachol-stimulated secreted lysozyme activity (log10) ([2]; 10 µM) | basal (log10) ([3]; 0.08 µM) | basal (log10) ([3]; 0.4 µM) | basal (log10) ([3]; 2 µM) | basal (log10) ([3]; 10 µM)
1 | CCN(CC)CCCC(C)Nc1nc(C)cc(Nc2ccc3nc(C)cc(N)c3c2)n1 (stereo unspecified) | 0.0431 ± 0.082 | 0.17 ± 0.25 | 0.117 ± 0.45 | 0.324 ± 0.54 | 0.0401 ± 0.0044 | 0.0315 ± 0.12 | -0.044 ± 0.098 | -0.0646 ± 0.083 | 0.0805 ± 0.043 | 0.0436 ± 0.11 | 0.0581 ± 0.13 | 0.00921 ± 0.086
2 | CCOC(=O)c1ccc(N2NC(=O)C(=Cc3ccc([N+](=O)[O-])o3)C2=O)cc1 | 0.204 ± 0.28 | 0.302 ± 0.35 | 0.0421 ± 0.43 | -0.028 ± 0.48 | 0.136 ± 0.045 | 0.0288 ± 0.018 | -0.028 ± 0.16 | -0.122 ± 0.17 | 0.164 ± 0.063 | -0.00354 ± 0.077 | 0.0301 ± 0.14 | 0.00153 ± 0.18
3 | CN(C)C(=O)[C@H](O)[C@H](Cc1ccccc1)NC(=O)c1cc2cc(Cl)ccc2[nH]1 | 0.0306 ± 0.33 | -0.0235 ± 0.26 | -0.0979 ± 0.15 | -0.1 ± 0.15 | 0.286 ± 0.085 | 0.107 ± 0.13 | -0.112 ± 0.17 | -0.146 ± 0.17 | 0.177 ± 0.25 | -0.0332 ± 0.051 | 0.0281 ± 0.25 | -0.0572 ± 0.091
4 | Oc1ccc2ccccc2c1SSc1c(O)ccc2ccccc12 | 0.219 ± 0.031 | -0.332 ± 0.61 | -0.0845 ± 0.028 | -0.0536 ± 0.13 | 0.116 ± 0.056 | -0.0321 ± 0.12 | 0.107 ± 0.15 | -0.014 ± 0.094 | 0.00354 ± 0.07 | 0.00327 ± 0.066 | -0.00109 ± 0.086 | -0.0214 ± 0.06
5 | C[C@@H](NCCCc1cccc(C(F)(F)F)c1)c1cccc2ccccc12 [Cinacalcet HCl] | -0.444 ± 0.38 | -0.298 ± 0.099 | -0.0116 ± 0.1 | -0.451 ± 0.35 | -0.0898 ± 0.24 | 0.0129 ± 0.13 | -0.0296 ± 0.042 | -0.174 ± 0.026 | -0.0616 ± 0.12 | -0.0232 ± 0.14 | -0.0217 ± 0.044 | -0.0907 ± 0.044
6 | CCOC(=O)[C@H]1O[C@@H]1C(=O)N[C@@H](CC(C)C)C(=O)NCCC(C)C [Aloxistatin] | -0.00644 ± 0.083 | -0.006 ± 0.17 | -0.129 ± 0.097 | -0.214 ± 0.24 | 0.0277 ± 0.18 | -0.031 ± 0.046 | -0.0933 ± 0.066 | -0.235 ± 0.18 | 0.0196 ± 0.079 | -0.0288 ± 0.054 | -0.0372 ± 0.066 | -0.142 ± 0.086
7 | CC(C)NCC(O)COc1ccc(COCCOC(C)C)cc1 (stereo unspecified) [Bisoprolol fumarate] | -0.104 ± 0.39 | -0.0571 ± 0.079 | -0.02 ± 0.14 | 0.0582 ± 0.11 | 0.0072 ± 0.11 | 0.157 ± 0.098 | 0.094 ± 0.069 | -0.0315 ± 0.0092 | 0.0849 ± 0.088 | 0.0746 ± 0.038 | 0.0754 ± 0.074 | 0.00313 ± 0.058
8 | Nc1ncnc2c1c(-c1cccc(OCc3ccccc3)c1)cn2C1CC(CN2CCCC2)C1 (stereo unspecified) | 0.679 ± 0.32 | 0.663 ± 0.24 | 0.257 ± 0.081 | -0.465 ± 0.47 | 0.238 ± 0.3 | 0.317 ± 0.48 | -0.238 ± 0.089 | -0.297 ± 0.096 | 0.142 ± 0.093 | 0.172 ± 0.27 | -0.0945 ± 0.068 | -0.135 ± 0.088
9 | C=C1C(=O)O[C@@H]2/C=C(\C)CC/C=C(\C)CC[C@@H]12 [Costunolide] | -0.0293 ± 0.26 | 0.121 ± 0.1 | 0.05 ± 0.29 | 0.00793 ± 0.23 | 0.139 ± 0.024 | 0.0997 ± 0.093 | -0.0706 ± 0.15 | -0.0628 ± 0.16 | 0.131 ± 0.06 | 0.0672 ± 0.065 | -0.0181 ± 0.11 | 0.0468 ± 0.079
10 | c1cc(-c2cnn3cc(-c4ccc(N5CCNCC5)cc4)cnc23)c2cccnc2c1 | 0.238 ± 0.18 | 0.129 ± 0.37 | -0.475 ± 0.22 | -1.26 ± 0.6 | 0.133 ± 0.16 | -0.0371 ± 0.031 | -0.342 ± 0.1 | -0.491 ± 0.031 | 0.0946 ± 0.11 | 0.0512 ± 0.07 | -0.217 ± 0.093 | -0.273 ± 0.11
11 | Cc1[nH]c(/C=C2\C(=O)Nc3ccc(S(=O)(=O)N(C)c4cccc(Cl)c4)cc32)c(C)c1C(=O)N1CCN(C)CC1 | -0.294 ± 1.4 | 0.3 ± 0.12 | 0.114 ± 0.073 | -0.113 ± 0.29 | -0.12 ± 0.3 | 0.358 ± 0.4 | 0.0982 ± 0.13 | -0.21 ± 0.29 | -0.0218 ± 0.22 | 0.133 ± 0.058 | 0.0338 ± 0.075 | -0.0988 ± 0.15
12 | CC(C)c1cc(-c2n[nH]c(=O)n2-c2ccc3c(ccn3C)c2)c(O)cc1O [Ganetespib (STA-9090)] | -1.45 ± 0.47 | -2.1 ± 0.15 | -1.72 ± 0.54 | -1.62 ± 0.56 | -0.347 ± 0.0059 | -0.33 ± 0.048 | -0.335 ± 0.0035 | -0.349 ± 0.042 | -0.141 ± 0.076 | -0.155 ± 0.078 | -0.15 ± 0.054 | -0.136 ± 0.073
13 | COc1ccc2cc([C@H](C)C(=O)O)ccc2c1 [Naproxen] | -0.0977 ± 0.2 | -0.0678 ± 0.13 | -0.588 ± 0.42 | -1.28 ± 0.63 | 0.118 ± 0.16 | 0.103 ± 0.12 | -0.263 ± 0.067 | -0.306 ± 0.19 | 0.141 ± 0.13 | 0.107 ± 0.2 | -0.0801 ± 0.081 | -0.122 ± 0.14
14 | N#Cc1c(O)c2c(-c3ccc(-c4ccccc4O)cc3)csc2[nH]c1=O | -0.0743 ± 0.096 | 0.00687 ± 0.19 | -0.127 ± 0.25 | -0.0152 ± 0.051 | 0.122 ± 0.037 | 0.0559 ± 0.079 | 0.276 ± 0.33 | -0.00681 ± 0.079 | 0.0452 ± 0.1 | 0.0688 ± 0.079 | 0.0543 ± 0.018 | 0.00856 ± 0.065
15 | Nc1cccc2c1CN(C1CCC(=O)NC1=O)C2=O (stereo unspecified) [Lenalidomide (CC-5013)] | 0.0462 ± 0.051 | -0.0155 ± 0.14 | -0.25 ± 0.18 | -0.316 ± 0.23 | 0.0769 ± 0.11 | 0.239 ± 0.077 | 0.0297 ± 0.011 | -0.0552 ± 0.083 | 0.147 ± 0.06 | 0.0992 ± 0.089 | 0.0706 ± 0.092 | -0.0414 ± 0.07
16 | O=C(NOCC1CC1)c1ccc(F)c(F)c1Nc1ccc(I)cc1Cl | 0.366 ± 0.43 | 0.261 ± 0.49 | -0.212 ± 0.33 | -0.796 ± 0.57 | -0.0299 ± 0.019 | -0.0362 ± 0.1 | -0.2126 ± 0.00042 | -0.296 ± 0.13 | -0.0186 ± 0.0075 | -0.0526 ± 0.033 | -0.135 ± 0.048 | -0.116 ± 0.075
17 | CN(C)CCOc1ccc(/C(=C(/CCCl)c2ccccc2)c2ccccc2)cc1 [Toremifene Citrate] | -0.095 ± 1 | 0.0552 ± 0.54 | -0.751 ± 1.1 | -1 ± 1.1 | -0.159 ± 0.34 | 0.123 ± 0.25 | 0.0571 ± 0.24 | -0.248 ± 0.17 | -0.0335 ± 0.15 | 0.0258 ± 0.12 | 0.0172 ± 0.23 | -0.149 ± 0.12
18 | Cc1[nH]c2ccccc2c1CCNC(=O)c1cccs1 | 0.202 ± 0.1 | -0.00432 ± 0.24 | -0.201 ± 0.31 | -0.169 ± 0.42 | 0.138 ± 0.054 | -0.0482 ± 0.11 | 0.0843 ± 0.47 | -0.162 ± 0.1 | 0.0386 ± 0.13 | -0.0491 ± 0.052 | -0.0658 ± 0.085 | -0.108 ± 0.017
